The record followed here is PMC12136788.

T1: UNK ZnF1-3 (human, UniProt Q9C0B0 31-174)
T1 sequence: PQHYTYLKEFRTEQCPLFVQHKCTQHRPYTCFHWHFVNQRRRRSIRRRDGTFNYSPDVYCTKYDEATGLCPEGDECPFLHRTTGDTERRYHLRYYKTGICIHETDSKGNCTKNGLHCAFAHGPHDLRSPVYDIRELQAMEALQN

B1: chr11:124637793:124637794:-_ENSG00000120458_ENST00000374979|hu_hu|FALSE|FALSE (ssRNA)
RNA: GGGAGUUCUACAGUCCGACGAUCCUGGGAGCUGAUCUCAGCAUAAUGGUAACGGAUAUCCUCUUUCCAACGGGUGUUAUAACCAAUUCCAAAAAUGGCCAGUUUAUUAGAAAGAUGGAGCCUUGAAAAGUCUGUCCAGCUCUGCAACAGAGGAUUGAGCAUCA
B2: chr11:46405157:46405158:+_ENSG00000110492_ENST00000395566|hu_hu|hu_hu_hu_mus_False|48_98 (ssRNA)
RNA: GGGAGUUCUACAGUCCGACGAUCCCCUCCCCACUUUGGCUGGGGAGUGUGGGCGUGAGAGGACAGGCGUGAUUGACAGAGCUGACAAGCAGACAGAAGGCACUGGUGGGUUAUAUCUUGGGCCUGUGGGAGAGGAGGGCUCCGCAACAGAGGAUUGAGCAUCA
B3: chr10:111893599:111893600:+_ENSG00000148700_ENST00000277900|hu_hu|motif|central (ssRNA)
RNA: GGGAGUUCUACAGUCCGACGAUCAUUCAGACAGAUAGCUGUUUAUGGUGAAUUAUAAUAAUACUUCAUGAGGGCAGAGCGGAUUAAAACUAGUAAUUGCUUAAAAUUCAAAGCCAUUUCUGGACAUAUAAAAUGAGAGAUGAACAACAGAGGAUUGAGCAUCA
B4: chr11:77336104:77336105:-_ENSG00000074201_ENST00000525064|hu_mus|hu_hu_hu_mus_False|18_28 (ssRNA)
RNA: GGGAGUUCUACAGUCCGACGAUCCUCACACAUUGCUGUGAACAUCGCCUCCAAUGCUGACUUAUCACUGGGCACAAAUCGAAAUUCAGAAAUGGGUUCAACAUCAUCAUCACUGUCUUCCUCUUCUUCAGAGAGAGGUUCUUUCAACAGAGGAUUGAGCAUCA
B5: chr10:112343607:112343608:+_ENSG00000108055_ENST00000361804|hu_hu|motif|central (ssRNA)
RNA: GGGAGUUCUACAGUCCGACGAUCUUCUAUUUUUUCAAGCAGCUUCUGCCUCUCUUUUAAUAAACGUUUCCUUUGUUCACGGUUGCCUGCUAGUUCAUCUUGUAAAUCCUUGGCUUUAAGCUCCAACUUAGUCCUCUGCUUAAUCAACAGAGGAUUGAGCAUCA
B6: chr4:83987663:83987664:+_ENSG00000138663_ENST00000264389|hu_mus|motif|central (ssRNA)
RNA: GGGAGUUCUACAGUCCGACGAUCGCGUCCUUCCGUUAUCAUCUGAGAUGCUAUCUUUUCUGCCUUAGCUGCAGGGAUCUCGGAAAGAGCUCCAAGUUCUUCAAAGGUGAUAUUGUUAUAUAAUUUGCUUGCUGACAACAAAUUCAACAGAGGAUUGAGCAUCA

The list shows a part of the results.

The target of the experiment is T1, UNK ZnF1-3. The experiment can be described thus: nsRBNS (natural sequence RNA bind-n-seq); RBNS binding buffer (assumed for nsRBNS): 25 mM Tris pH 7.5, 150 mM KCl, 3 mM MgCl2, 0.01% Triton X-100, 500 ug/ml BSA, 20 U/ml SUPERase-In, 4 C; UNK is unkempt and MSI1 is Musashi-1; names of the RNAs are library labels; protein concentration not given here; high values mean tight binding.
With B1, the binding signal amounted to 0.772 enrichment R. To B2 belongs 2.2 enrichment R. To B3 belongs 3.18 enrichment R; to B4, 0.931 enrichment R; to B5, 0.373 enrichment R.

B6 registered a binding signal of 0.648 enrichment R.
